From the CheMixHub ionic liquid set
± gives the uncertainty stated by the source. Further values from the same series stand in other lists.

Experiment: xn = mol fraction of the nth substance listed
Settings: 101 kPa

CCCCCC[n+]1ccn(C)c1.F[B-](F)(F)F + CC(C)O + CCCO
viscosity [mPa·s]
Settings	313.15 K	323.15 K	333.15 K
x2 = 0.0547, x3 = 0.092	58.44 ± 0.54	39.18 ± 0.38	27.53 ± 0.27
x2 = 0.0978, x3 = 0.4041	–	11.32 ± 0.09	8.66 ± 0.07
x2 = 0.1003, x3 = 0.7991	–	1.64 ± 0.01	1.19 ± 0.01
x2 = 0.1006, x3 = 0.6013	–	5.04 ± 0.03	3.87 ± 0.03
x2 = 0.1012, x3 = 0.4996	–	7.56 ± 0.05	5.83 ± 0.04
x2 = 0.1014, x3 = 0.7009	–	3.08 ± 0.02	2.3 ± 0.02
x2 = 0.1116, x3 = 0.2875	–	16.41 ± 0.13	12.5 ± 0.1
x2 = 0.1293, x3 = 0.1504	35.73 ± 0.31	25.01 ± 0.22	18.36 ± 0.16
x2 = 0.1973, x3 = 0.1121	–	22.81 ± 0.2	16.82 ± 0.15
x2 = 0.1985, x3 = 0.4006	–	7.66 ± 0.05	5.89 ± 0.04
x2 = 0.1992, x3 = 0.3012	–	11.38 ± 0.09	8.77 ± 0.07
x2 = 0.2003, x3 = 0.2005	–	16.3 ± 0.13	12.28 ± 0.1
x2 = 0.2003, x3 = 0.4992	–	5.08 ± 0.04	3.89 ± 0.03
x2 = 0.2012, x3 = 0.6984	–	1.64 ± 0.01	1.15 ± 0.01
x2 = 0.2977, x3 = 0.1042	–	16.39 ± 0.14	12.37 ± 0.1
x2 = 0.2999, x3 = 0.4989	–	3.2 ± 0.02	2.36 ± 0.02
x2 = 0.3037, x3 = 0.4006	–	5.02 ± 0.04	3.84 ± 0.03
x2 = 0.3046, x3 = 0.5961	–	1.65 ± 0.02	1.11 ± 0.01
x2 = 0.3058, x3 = 0.3005	–	7.61 ± 0.06	5.87 ± 0.04
x2 = 0.3977, x3 = 0.2999	–	5.19 ± 0.04	3.98 ± 0.03
x2 = 0.3985, x3 = 0.104	–	11.2 ± 0.09	8.61 ± 0.07
x2 = 0.3987, x3 = 0.3005	–	5.14 ± 0.04	3.93 ± 0.03
x2 = 0.3989, x3 = 0.3998	–	3.19 ± 0.02	2.35 ± 0.02
x2 = 0.3989, x3 = 0.5015	–	1.64 ± 0.02	1.1 ± 0.01
x2 = 0.4002, x3 = 0.1968	–	7.81 ± 0.06	6.01 ± 0.05
x2 = 0.4992, x3 = 0.4006	–	1.67 ± 0.02	1.1 ± 0.01
x2 = 0.5004, x3 = 0.0998	–	7.76 ± 0.06	6 ± 0.05
x2 = 0.5013, x3 = 0.3019	–	3.11 ± 0.02	2.29 ± 0.02
x2 = 0.5734, x3 = 0.2335	–	3.06 ± 0.02	2.24 ± 0.02
x2 = 0.6, x3 = 0.0992	–	5.15 ± 0.04	3.94 ± 0.03
x2 = 0.6001, x3 = 0.3004	–	1.65 ± 0.02	1.1 ± 0.01
x2 = 0.6942, x3 = 0.1049	–	3.11 ± 0.02	2.32 ± 0.02
x2 = 0.698, x3 = 0.2007	–	1.67 ± 0.02	1.1 ± 0.01
x2 = 0.7991, x3 = 0.101	–	1.62 ± 0.02	1.06 ± 0.01
